Assay results published in the supplement of paper PMC8183993.
Several values for one entry are separate records, joined by “and”; a condition that tells them apart may be missing. Identical values can stand only once. Counter-ions that a name gives are not always drawn. ± gives the standard deviation of the averaged measurements. Whole data set: some 3,200 compounds, median “nuclei count (viability) relative to DMSO” near 99, cut for the lowest 2% near 16. This is one part of the list.

Tested on: U2OS
Assay: nuclei count (viability) relative to DMSO (% of DMSO); higher = more viable cells
Settings: 10 µM; 24 h
Procedure: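 Primary image-based screen in U2OS cells: compounds at 10 uM for 24 h, then a 1 h o-propargyl-puromycin (OPP) pulse, click labelling, and high-throughput microscopy. Mean cytoplasmic OPP intensity and nuclei count were normalised to DMSO wells within each plate (DMSO = 100) and averaged over triplicate plates.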

SMILES | nuclei count
Cc1nnc(SCC2=C(C(=O)O)N3C(=O)[C@@H](NC(=O)Cn4cnnn4)[C@H]3SC2)s1 [Cefazolin sodium salt] | 105
O=c1[nH]c(=O)n([C@H]2C[C@H](O)[C@@H](CO)O2)cc1C(F)(F)F [Trifluridine] | 106
Cc1cc(F)c(Nc2ncnc3cc(OCc4ccccc4)ccc23)cc1O | 85.2 and 99.2
COc1ccc2c3c1O[C@H]1C[C@@H](O)C=C[C@@]31CCN(C)C2 [Galanthamine hydrobromide] | 102 ± 2.6
NS(=O)(=O)c1ccc(NC(=O)Nc2ccc(F)cc2)cc1 | 103
CC(=O)CC(c1ccc([N+](=O)[O-])cc1)c1c(O)c2ccccc2oc1=O (stereo not given) [Acenocoumarol] | 95.7
CCCCCCCCNC(C)C(O)c1ccc(SC(C)C)cc1 (stereo not given) [Suloctidil] | 99.6
S=c1[nH]cnc2nc[nH]c12 [Mercaptopurine] | 91.9 ± 12
CN(Cc1ccc(C(C)(C)C)cc1)Cc1cccc2ccccc12 [Butenafine Hydrochloride] | 96.1
O=C(NCCCNc1nc(Nc2cccc(NC(=O)N3CCCC3)c2)ncc1I)c1cccs1 | 40.1 ± 3.3
N=C(CC(O)COc1ccccc1-c1ccccc1)N1CCCCC1 (stereo not given) | 104
Cc1ccccc1C(=O)Nc1ccc(C(=O)N2CCCC(N(C)C)c3ccccc32)cc1 (stereo not given) [Mozavaptan] | 41.2
CCCOc1ccc(Br)cc1-c1cc(-c2ccc(Cl)cc2)[nH]c1-c1ccncc1 | 114
C=C[C@@](C)(/C=C/c1ccc(O)cc1)CCC=C(C)C [Bakuchiol] | 71.4
COc1cc2c(cc1OC)[C@@H]1Cc3ccc(OC)c(OC)c3CN1CC2 [Rotundine] | 99.9
O=C(CCCN1CCC(O)(c2ccc(Cl)cc2)CC1)c1ccc(F)cc1 [Haloperidol hydrochloride] | 92
O=C(CCCN1CCC(O)(c2ccc(Cl)cc2)CC1)c1ccc(F)cc1 [Haloperidol] | 92
Cc1ccc(C)c(OCCCC(C)(C)C(=O)O)c1 [Gemfibrozil] | 98.5 ± 8.9
O=c1[nH]c2cc(Cl)ccc2c(O)c1-c1cccc(Oc2ccccc2)c1 | 104
O=C(O)C[C@H](O)C[C@H](O)/C=C/c1c(C2CC2)nc2ccccc2c1-c1ccc(F)cc1 [Pitavastatin calcium (Livalo)] | 68.5
O=C(Nc1ccccc1)N[C@@H]1C[C@@H](C(=O)O)Nc2cc(Cl)cc(Cl)c21 | 102
Cc1ccc(Sc2ccccc2N2CCNCC2)c(C)c1 | 60.7
CN1CCC(CNc2ccc3ncc(-c4cccc(OC(F)(F)F)c4)n3n2)CC1 [SGI-1776 free base] | 29.9 ± 1.6
NCC(=O)CCC(=O)O [5-Aminolevulinic acid HCl] | 101
CC(C)[C@H](NS(=O)(=O)c1ccc(-c2ccc(Br)cc2)cc1)C(=O)O | 97.3
CNCCC=C1c2ccccc2C=Cc2ccccc21 [Norcyclobenzaprine] | 94.1
NC(=O)c1ccc[n+]([C@@H]2O[C@H](COP(=O)([O-])OP(=O)(O)OC[C@H]3O[C@@H](n4cnc5c(N)ncnc54)[C@H](O)[C@@H]3O)[C@@H](O)[C@H]2O)c1 [Nadide] | 94.8

SMILES | nuclei count
COC(=O)CCc1ccc(OCC(O)CNC(C)C)cc1 (stereo not given) [Esmolol hydrochloride] | 102
O=C(NCc1cccc(O)c1)Nc1nc(-c2ccncc2)cs1 | 71.8
CN1C(C(=O)Nc2ccccn2)=C(O)c2ccccc2S1(=O)=O [Piroxicam] | 94.7 ± 12
COc1c(C)c2c(c(O)c1C/C=C(\C)CCC(=O)OCCN1CCOCC1)C(=O)OC2 [Mycophenolate mofetil (CellCept)] | 67.6
COCCOC(=O)C1=C(C)NC(C)=C(C(=O)OC(C)C)C1c1cccc([N+](=O)[O-])c1 (stereo not given) [Nimodipine] | 104 ± 7.4
CC1(C)S[C@@H]2[C@H](NC(=O)[C@H](N)c3ccccc3)C(=O)N2[C@H]1C(=O)OC1OC(=O)c2ccccc21 (stereo not given in full) [Talampicillin hydrochloride] | 99.8
NC(=O)OCC(O)COc1ccc(Cl)cc1 (stereo not given) [Chlorphensin carbamate] | 105
O=C(O)c1ccc(-n2nc(-c3ccccc3O)nc2-c2ccccc2O)cc1 [Deferasirox (Exjade)] | 104
C[C@H]1COC2(CCN(c3nc(=O)c4cc(C(F)(F)F)cc([N+](=O)[O-])c4s3)CC2)O1 (racemic) [BTZ043 racemate] | 101
C[C@]12CCC(=O)C=C1C=C[C@@H]1[C@@H]2CC[C@@]2(C)[C@H]1CC[C@@]21CCC(=O)O1 [Canrenone] | 107
CC1(C)[C@@H](O)CC[C@]2(C)[C@H]3C(=O)C=C4[C@@H]5C[C@@](C)(C(=O)O)CC[C@]5(C)CC[C@@]4(C)[C@]3(C)CC[C@@H]12 [Enoxolone (Glycyrrhetin)] | 103
CC1(C)CC(=O)c2c(C(F)(F)F)nn(-c3ccc(C(N)=O)c(N[C@H]4CC[C@H](OC(=O)CN)CC4)c3)c2C1 | 52.7
Cc1cnc(-c2cnc(NCCNc3ccc(C#N)cn3)nc2-c2ccc(Cl)cc2Cl)[nH]1 | 85.4 and 98.8
Cc1c(NC(C)C)c(=O)n(-c2ccccc2)n1C [Isopyrin hydrochloride] | 107
CCCNC(C)C(=O)Nc1c(C)csc1C(=O)OC (stereo not given) [Articaine hydrochloride] | 108
NCCc1cc[nH]n1 [Betazole hydrochloride] | 96.4
COc1cc(N)c(Cl)cc1C(=O)CCC1CCN(CCNS(C)(=O)=O)CC1 | 99.5
CNCc1ccc(-c2[nH]c3cc(F)cc4c3c2CCNC4=O)cc1 | 72.7
CC(=O)C1=C(O)C=C2Oc3c(C(C)=O)c(O)c(C)c(O)c3C2(C)C1=O (single isomer, unassigned; (+)) [(+)-Usniacin (D-Usnic acid)] | 104
CCNC(=O)c1noc(-c2cc(C(C)C)c(O)cc2O)c1-c1ccc(CN2CCOCC2)cc1 | 51.9
COc1cccc(N(C)C(=S)Oc2ccc3c(c2)CCCC3)n1 [Liranaftate] | 101
Clc1ccc(CCCOCCCN2CCCCC2)cc1 | 106
Nc1nc(=O)c2c([nH]1)NC[C@H](CNc1ccc(C(=O)N[C@@H](CCC(=O)O)C(=O)O)cc1)N2C=O [Calcium levofolinate (Calcium Folinate)] | 94.2
COc1ccc(CCc2nc3cc(-c4c(C)noc4C)ccc3n2C[C@H](C)N2CCOCC2)cc1Cl | 98.9
CC(C)C[C@H](NC(=O)N[C@H](C(=O)N[C@@H](CCC(N)=O)C(=O)N[C@@H](C)C=O)[C@@H]1CCNC(=N)N1)C(=O)O [Elastatinal] | 101
CC(C[N+](C)(C)C)OC(N)=O (stereo not given) [Bethanechol chloride] | 110
Cc1ccc2nc(NCCN)c3ncc(C)n3c2c1 | 39.2

SMILES | nuclei count
Cc1c(NC(=O)OC[C@@H]2COCCN2)cn2ncnc(Nc3ccc4c(cnn4Cc4cccc(F)c4)c3)c12 | 100
NCCC(O)(P(=O)(O)O)P(=O)(O)O [Pamidronate Disodium] | 94.6
CC(C)Oc1cc(Nc2nc(N[C@@H](C)c3ccc(F)cn3)ncc2Cl)n[nH]1 | 52.7
C[C@H](NC[C@H](O)CP(=O)(O)Cc1ccccc1)c1ccc(Cl)c(Cl)c1 | 88
COc1ccc([C@@H]2Sc3ccccc3N(CCN(C)C)C(=O)[C@@H]2OC(C)=O)cc1 [Diltiazem hydrochloride] | 96.4 ± 9.4
O=C1NC(=O)c2cc(Nc3ccc(F)cc3)c(Nc3ccc(F)cc3)cc21 | 116
Cc1cn([C@H]2C[C@H](N=[N+]=[N-])[C@@H](CO)O2)c(=O)[nH]c1=O [Zidovudine, AZT] | 100
C=CCc1ccc(O)c(-c2cc(CC=C)ccc2O)c1 [Magnolol] | 106
COc1ccc2c(c1)C(=O)N(CCc1ccc(S(=O)(=O)NC(=O)NC3CCCCC3)cc1)C(=O)C2(C)C [Gliquidone] | 108
CN(C)CCN(Cc1ccc(Cl)cc1)c1ccccn1 [Chloropyramine hydrochloride] | 105
CC(C)c1cccc(=O)c(O)c1 [Hinokitiol] | 87.3
NS(=O)(=O)Cc1noc2ccccc12 [Zonisamide] | 107 ± 8.5
CC(=N)NCc1cccc(CN)c1 [1400W dihydrochloride] | 99.8
Nc1ncnc2c1nc(Br)n2[C@@H]1O[C@@H]2COP(=O)(O)O[C@H]2[C@H]1O [8-Bromo-cAMP, sodium salt] | 97.4
CCCCC1C(=O)N(c2ccccc2)N(c2ccccc2)C1=O [Phenylbutazone] | 104
COc1cc2ncnc(Nc3ccc(F)c(Cl)c3)c2cc1NC(=O)/C=C/CN1CCCCC1 | 87.7 and 83.3
Nc1nccc(-c2ccc3noc(-c4ccc(Cl)cc4)c3c2)n1 [PIM 1 Inhibitor 2] | 97.2
CC1=CC(=O)c2ccccc2C1=O [Menadione] | 54.1
CC(=O)/N=c1/sc(S(N)(=O)=O)nn1C [Methazolamide] | 104
N=C(N)N1CCc2ccccc2C1 [Debrisoquin sulfate] | 104
Cc1ccc(C(=O)N(CCCN)[C@@H](c2nc3cc(Cl)ccc3c(=O)n2Cc2ccccc2)C(C)C)cc1 | 9.23
CCCc1nc2c(C)cc(-c3nc4ccccc4n3C)cc2n1Cc1ccc(-c2ccccc2C(=O)O)cc1 [Telmisartan] | 98.3
CCCCOC(=O)c1ccc(O)cc1 [Butylparaben] | 93.8
CNCCCCOc1ccccc1Cc1ccccc1 [Bifemelane hydrochloride] | 99.7
COCCCOc1cc(C[C@@H](C[C@H](N)[C@@H](O)C[C@H](C(=O)NCC(C)(C)C(N)=O)C(C)C)C(C)C)ccc1OC [Aliskiren hemifumarate] | 103
O=C(O)Cc1cc(I)c(Oc2ccc(O)c(I)c2)c(I)c1 [Tiratricol, 3,3',5-triiodothyroacetic acid] | 117
